Data as given in the supplement of paper PMC10477191.
± gives the standard deviation of the averaged measurements. Some of the results follow.

Each compound was assayed on Drosophila novamexicana (assay: attraction index (odor vs solvent trap) (index (-1 to 1)); higher = more attraction to the odorant). Settings: test temperature 23 °C; odor dose: 10^-2 dilution in mineral oil.
Protocol: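 Two-choice trap assay at 23 °C and 70% humidity. Starved adult flies (20 per box, 4-6 days old) chose between a trap with odorant (2 µl at 10^-2 in 200 µl mineral oil) and a solvent trap; counts were taken after 24 h.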
Work on CC(=O)C(C)O (stereo not drawn) [acetoin] yielded an attraction index of -0.0587 ± 0.35.
With COc1ccccc1O [guaiacol] the attraction index was -0.259 ± 0.23.
For CCCCCCO [1-hexanol], the attraction index was 0.298 ± 0.36.
Compound CC(=O)c1ccccc1 [acetophenone] has an attraction index of -0.201 ± 0.39.
CC(C)OC(=O)c1ccccc1 [isopropyl benzoate] gave an attraction index of -0.119 ± 0.29.
CCCCCOC(C)=O [pentyl acetate] was tested, and the attraction index was -0.034 ± 0.38.
Compound COC(=O)c1ccccc1 [methyl benzoate] has an attraction index of -0.247 ± 0.32.
CC(=O)OC/C=C(\C)CCC=C(C)C [geranyl acetate] was tested, and the attraction index was -0.0819 ± 0.35.
With CCOC(=O)C(C)O (stereo not drawn) [ethyl lactate] the attraction index was -0.06 ± 0.36.
CCCCCCOC(C)=O [hexyl acetate] showed an attraction index of -0.539 ± 0.24.
C=CC(O)CCCCC (stereo not drawn) [1-octen-3-ol] was tested, and the attraction index was 0.104 ± 0.22.
With CCOC(=O)CC(C)O (stereo not drawn) [ethyl 3-hydroxybutyrate] the attraction index was 0.162 ± 0.32.
In the case of CCCCCC(C)=O [2-heptanone], the attraction index is reported as -0.212 ± 0.36.
For COC(=O)c1ccccc1O [methyl salicylate], the attraction index was 0.256 ± 0.21.
Compound CCCC(=O)OCc1ccccc1 [benzyl butyrate] has an attraction index of 0.313 ± 0.21.
Work on COc1cccc(OC)c1O [2,6-dimethoxyphenol] yielded an attraction index of 0.0952 ± 0.26.
In the case of CC(=O)CCC=C(C)C [6-methyl-5-hepten-2-one], the attraction index is reported as -0.303 ± 0.36.
In the case of CCCCCC(=O)OCC [ethyl hexanoate], the attraction index is reported as 0.153 ± 0.36.
